The whole screen tested about 94,000 compounds, of which about 6,200 (6.6%) were called active. The shares of active, inactive and inconclusive entries below differ from those in the screen. The call rests on the fitted dose curve; in most records, active means well fitted inhibition curve with a large enough effect; inconclusive means small, poorly fitted or top-dose-only effect; inactive means flat fitted curve, though single readings scatter. Potencies of inconclusive entries are doubtful fits and often do not repeat.
Assay: Cytotoxic Profiling in HEK 293 Cell Line of Diverse Libraries Using Quantitative High-Throughput Screening; further: nearly all actives have a fitted effect of over 60% in size
Conditions: HEK 293 viability, ATP luminescence (CellTiter-Glo), 48-72 h; activity change, negative = cytotoxicity: at 115 µM (top of the series) unless noted; series mostly up to 115 µM
Method in brief: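 qHTS cytotoxicity; HEK 293, 250 cells/well; compound pinned; 48 or 72 hr, 37 degree Celsius, 5% CO2, 95% humidity; CellTiter-Glo, 10 min RT; luminescence (ATP).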
On the % scale 0 is the no-effect control and ±100 the full control effect; potency means the concentration at half of the fitted maximal effect; tags describe the fitted curve by direction and shape.

Q: Which Potency does the source give for `COCCNC(=O)c1coc(COc2ccc3c(c2)C(c2ccc(C)cc2)N(C(=O)C2CC2)CC3)n1` (configuration not stated) here?
A: Its Potency is active: 25.1 µM.

Q: With `O=C(Cc1ccccn1)NC1CCN(c2nccc(Nc3ccccc3F)n2)CC1` as the compound, how does the “activity change, negative = cytotoxicity” value read?
A: Its value is inactive: -22%.

Q: For `COc1ccccc1Nc1ccnc(N2CCC(C(=O)NCc3cccc(Cl)c3)CC2)n1`, which Potency is on record?
A: Its Potency is active: 39.8 µM.

Q: Which Potency does the source give for `O=C(NC1CCN(c2cc(-c3ccc(F)cc3)[nH]n2)C1)c1cccc(F)c1` (configuration not stated) here?
A: Its Potency is active: 39.8 µM.

Q: Which Potency does the source give for `CCOc1ccc(C(=O)N2CCCC(c3noc(COc4ccccc4)n3)C2)cc1` (configuration not stated) here?
A: The Potency was inconclusive: 50.1 µM [inhibitor, partial curve, poor fit].

Q: With `Cc1cc2cc(-c3c(C)noc3C)nc(Nc3ccccn3)c2o1` as the compound, how does the Potency read?
A: Its Potency is inconclusive: 89.1 µM [inhibitor, partial curve, poor fit].

Q: With `Cc1ccc(OCc2nc(C3CCCN3C(=O)c3sc(C)nc3C)no2)cc1` (configuration not stated) as the compound, how does the Potency read?
A: Its Potency is inconclusive: 50.1 µM [inhibitor, partial curve, poor fit].

Q: For `CC1=C[C@@H](CN)[C@H](C(C)C)C[C@H]1Cc1nc2ccc(C)cc2[nH]1`, which Potency is on record?
A: Its Potency is active: 44.7 µM.

Q: With `Cn1nccc1CN1CCC2(C1)C(=O)N(c1ccccc1)c1ccccc12` (configuration not stated) as the compound, how does the Potency read?
A: Its Potency is inconclusive: 12.6 µM [inhibitor, partial curve, poor fit].

Q: With `Clc1ccc(CN2CCOC[C@H](Oc3cccnc3)C2)cc1` as the compound, how does the Potency read?
A: Its Potency is inconclusive: 112 µM [inhibitor, partial curve, poor fit].

Q: Which “activity change, negative = cytotoxicity” value does the source give for `COc1ccccc1CNC(=O)CN1CCCc2nc(C)ncc2C1=O` here?
A: The value was inactive: -3.51%.

Q: For `O=C(NCc1c[nH]c2ncccc12)c1ccccc1F`, which “activity change, negative = cytotoxicity” value is on record?
A: The value was inactive: -18.3% [at 172 µM].

Q: With `COc1nccc(N2CCC(CC(=O)NCc3cccc(C(F)(F)F)c3)CC2)n1` as the compound, how does the Potency read?
A: The Potency was inconclusive: 44.7 µM [inhibitor, partial curve, poor fit].

Q: Which Potency does the source give for `Cc1ccc(CN2C[C@@H]3C(=O)N(Cc4ccc5c(c4)OCO5)C(=O)[C@@H]3C2)cc1` here?
A: Its Potency is inconclusive: 56.2 µM [inhibitor, partial curve, poor fit].

Q: Which “activity change, negative = cytotoxicity” value does the source give for `CC(C)C[C@@H](NC(=O)C1=C[C@@H](NC(=O)c2ccco2)[C@@H](O)[C@H](O)C1)C(N)=O` here?
A: Its value is inactive: -7.7% [at 172 µM].

Q: For `O=C(NCc1cccc(C(F)(F)F)c1)c1ccc2nnc(-c3cc[nH]c3)n2c1`, which Potency is on record?
A: The Potency was inconclusive: 56.2 µM [inhibitor, partial curve, poor fit].

Q: With `Cc1ccccc1-c1ncc(CN(C)C(C)c2ccon2)s1` (configuration not stated) as the compound, how does the Potency read?
A: Its Potency is inconclusive: 50.1 µM [inhibitor, partial curve, poor fit].

Q: Which Potency does the source give for `c1ccc2ncc(CNC[C@H]3Cn4c(-c5ccc6c(c5)OCCO6)cnc4CO3)cc2c1` here?
A: The Potency was active: 50.1 µM.

Q: With `Cc1nn2c(c1-c1ccccc1C(C)C)N(C(=O)c1cccc(N(C)C)c1)CCC2` as the compound, how does the Potency read?
A: Its Potency is inconclusive: 79.4 µM [inhibitor, partial curve, poor fit].

Q: Which “activity change, negative = cytotoxicity” value does the source give for `COc1ccc(CCNC(=O)C2CN(C3CCCCC3)C(=O)N2)cc1` (configuration not stated) here?
A: Its value is inactive: -31.5% [at 172 µM].

Q: With `CC1(C(=O)NCc2ccc(F)cc2)CCCc2cnc(Nc3cccnc3)nc21` (configuration not stated) as the compound, how does the “activity change, negative = cytotoxicity” value read?
A: The value was inactive: -16% [at 172 µM].

Q: Which Potency does the source give for `CC(C)Cn1c(CN(C)C(C)c2ccon2)cnc1S(=O)(=O)Cc1ccccc1` (configuration not stated) here?
A: Its Potency is inconclusive: 89.1 µM [inhibitor, single point].

Q: Which Potency does the source give for `COc1ccc(C2=NOC3(CCN(C(=O)c4ccccc4OC)C3)C2)cc1` (configuration not stated) here?
A: Its Potency is inconclusive: 50.1 µM [inhibitor, partial curve, poor fit].

Q: Which Potency does the source give for `O=C(Nc1ccccc1)c1nc2c(o1)CCN(Cc1ccc(F)cc1)CC2` here?
A: Its Potency is inconclusive: 44.7 µM [inhibitor, partial curve, poor fit].

Q: For `COc1ccc([C@H]2C[C@@H](O)[C@@H](O)[C@@H]2NS(=O)(=O)c2ccccc2)cc1`, which “activity change, negative = cytotoxicity” value is on record?
A: Its value is inactive: 2% [at 172 µM].

Q: With `O=C1NC2(CCN(Cc3ccc(OC(F)(F)F)cc3)CC2)COc2ccccc21` as the compound, how does the “activity change, negative = cytotoxicity” value read?
A: The value was inactive: 2.76%.

Q: With `Cc1cc(CN2CCC(CO)(CN3CCCC3)CC2)ccc1F` as the compound, how does the Potency read?
A: Its Potency is inconclusive: 44.7 µM [inhibitor, partial curve].

Q: For `Cc1ccc(CNC(=O)c2ccc(-c3ccc(N4CCCCC4)nc3)cc2)o1`, which Potency is on record?
A: Its Potency is inconclusive: 70.8 µM [inhibitor, partial curve, poor fit].

Q: For `COc1cccc(CN2CCOC3(CCN(Cc4ccc(F)cc4F)CC3)C2=O)c1`, which Potency is on record?
A: Its Potency is inconclusive: 89.1 µM [inhibitor, partial curve].

Q: With `CCOC(=O)[C@@H]1CN(C(=O)C(C)C)[C@H]2c3ccc(OC)cc3O[C@@H]12` as the compound, how does the Potency read?
A: Its Potency is inconclusive: 15.8 µM [inhibitor, full curve, poor fit].

Q: With `O=C(NCCCc1ccccc1)C1CCN(C(=O)c2ncn3c2COC(c2ccc(F)cc2)C3)CC1` (configuration not stated) as the compound, how does the “activity change, negative = cytotoxicity” value read?
A: Its value is inactive: 8.47%.

Q: For `O=C1CO[C@H]2CN(Cc3ccccc3F)C[C@H]2N1c1ccccc1`, which Potency is on record?
A: Its Potency is active: 79.4 µM.

Q: For `COc1cncc(NC(=O)C2=NO[C@@H]3CN(Cc4ccc(O)c(Cl)c4)C[C@H]23)c1`, which Potency is on record?
A: The Potency was inconclusive: 100 µM [inhibitor, partial curve, poor fit].

Q: With `CN(C)Cc1cc(C[C@@H]2C[C@H](N(Cc3ccco3)Cc3ccco3)C2(C)C)no1` as the compound, how does the Potency read?
A: Its Potency is active: 70.8 µM.

Q: Which Potency does the source give for `Cc1nn(C)c(C)c1S(=O)(=O)N1CCCC(C(=O)N2CCCn3nc(-c4ccc(F)cc4)cc3C2)C1` (configuration not stated) here?
A: Its Potency is active: 31.6 µM.

Q: With `O=C(NC1CCCC1)c1ccc(OC2CCN(CCCC(F)(F)F)CC2)c(Cl)c1` as the compound, how does the Potency read?
A: The Potency was active: 31.6 µM.

Q: With `CCC1(N2CCN(C(=O)NCc3cccc(F)c3)CC2)CCN(C(=O)C(C)C)C1` (configuration not stated) as the compound, how does the “activity change, negative = cytotoxicity” value read?
A: The value was inactive: 0.0749%.

Q: With `Cn1ncc2c(C(=O)Nc3ccc(Cl)cc3)cc(-c3cccc(F)c3)nc21` as the compound, how does the Potency read?
A: Its Potency is inconclusive: 50.1 µM [inhibitor, partial curve, poor fit].

Q: For `COc1cccc([S+](=O)([O-])N2CC(Oc3ccc4c(c3)OCO4)C2)c1`, which “activity change, negative = cytotoxicity” value is on record?
A: The value was inactive: -21.5%.

Q: For `CCc1cccc(NC(=O)N2CCC(OC3CCN(Cc4ccccc4)CC3)CC2)c1`, which Potency is on record?
A: The Potency was inconclusive: 44.7 µM [inhibitor, partial curve, poor fit].

Q: For `Cc1ccc(CN2CCC3(CC2)CN[S+](=O)([O-])c2ccccc2N3)cc1`, which Potency is on record?
A: The Potency was inconclusive: 50.1 µM [inhibitor, partial curve, poor fit].

Q: With `CCCCCC(=O)N1[C@@H](c2ccco2)[C@@H](C(=O)O)C[C@]12CCCCN(CCOC)C2=O` as the compound, how does the Potency read?
A: Its Potency is inconclusive: 89.1 µM [inhibitor, single point].

Q: For `Cc1ccc(-c2ccccc2CN2CCN(C(=O)Nc3ccccc3)CC2)cc1Cl`, which Potency is on record?
A: The Potency was active: 31.6 µM.

Q: For `O=C(CCC1CCCN(S(=O)(=O)c2ccccc2)C1)N1CCc2ccccc2C1` (configuration not stated), which Potency is on record?
A: The Potency was inconclusive: 50.1 µM [inhibitor, partial curve, poor fit].

Q: Which “activity change, negative = cytotoxicity” value does the source give for `COC(=O)c1ccc(NC(=O)c2c(C)oc3ccn(Cc4ccc(F)cc4)c(=O)c23)cc1` here?
A: Its value is inactive: -16.8%.

Q: For `COc1ccccc1OCCNC(=O)C1CC(=O)N(c2n[nH]c3cccc(F)c23)C1` (configuration not stated), which “activity change, negative = cytotoxicity” value is on record?
A: The value was inactive: 2.04%.

Q: With `COc1ccc(CCNC(=O)c2nc3sccn3c2-c2ccc(F)cc2)cc1` as the compound, how does the “outcome” value read?
A: Its value is “inactive [at 172 µM]”.

Q: For `Cc1ccc(C2=NC3(CCN(C(=O)c4sccc4C)CC3)ON2)cc1`, which “activity change, negative = cytotoxicity” value is on record?
A: Its value is inactive: -11.1%.

Q: For `CC(C)N1C(=O)[C@@H]2[C@@H](CCN2C(=O)CSCC(=O)O)N(Cc2cccc(F)c2)C1=O`, which “activity change, negative = cytotoxicity” value is on record?
A: Its value is inactive: -23.7% [at 172 µM].

Q: With `O=C(c1ccc(C(F)(F)F)cc1)N1CC(Oc2ccc3c(c2)OCO3)C1` as the compound, how does the “activity change, negative = cytotoxicity” value read?
A: Its value is inactive: -36.6%.

Q: Which Potency does the source give for `FC(F)(F)Oc1cccc(CN2CCC[C@H]2c2nc(-c3ccc(N4CCOCC4)nc3)no2)c1` here?
A: The Potency was inconclusive: 44.7 µM [inhibitor, partial curve, poor fit].

Q: Which “activity change, negative = cytotoxicity” value does the source give for `CNC(=O)[C@@H]1C[C@H](n2cc(CNC(=O)Nc3ccc(Cl)cc3)nn2)CN1` here?
A: Its value is inactive: -1.21%.

Q: For `Cc1cc(C(=O)NC[C@@H]2CC[C@H]3C[C@@H]2C3(C)C)ccc1Cl`, which Potency is on record?
A: The Potency was inconclusive: 50.1 µM [inhibitor, partial curve, poor fit].

Q: Which Potency does the source give for `CC1CCC2(CC1)NC(=O)N(CC(=O)Nc1ccc(Cl)cc1)C2=O` (configuration not stated) here?
A: The Potency was inconclusive: 8.91 µM [inhibitor, full curve, poor fit].

Q: For `O=C(NCc1ccccc1)C1CCN(c2cc(C(F)(F)F)ncn2)CC1`, which Potency is on record?
A: The Potency was inconclusive: 44.7 µM [inhibitor, partial curve].

Q: Which Potency does the source give for `O=C(Cc1cccc(O)c1)N1CC(CNc2ccccc2)C2(C1)CN(c1ccccc1)C2` (configuration not stated) here?
A: Its Potency is active: 31.6 µM.

Q: For `O=C1CCC2(CCCO2)CCN1Cc1cccc(F)c1F` (configuration not stated), which “activity change, negative = cytotoxicity” value is on record?
A: Its value is inactive: -6.75%.

Q: Which Potency does the source give for `COc1ccc(C(=O)N2CCC(N3C(=O)[C@H]4CN(Cc5ccccc5)C[C@H]4C3=O)CC2)cn1` here?
A: The Potency was inconclusive: 100 µM [inhibitor, single point].

Q: Which “activity change, negative = cytotoxicity” value does the source give for `CCc1ccc(C(=O)N2CCCN(S(C)(=O)=O)c3ccccc32)cc1` here?
A: Its value is inactive: -10.7%.

Q: For `Cc1ccc(C(=O)N2CCC3(CC2)c2[nH]c4ccccc4c2CCN3C)cn1`, which “activity change, negative = cytotoxicity” value is on record?
A: Its value is inactive: -29.9%.

Q: For `COc1ccccc1CC(=O)N1CCCN(CCc2ccccc2)c2ccccc21`, which Potency is on record?
A: The Potency was active: 39.8 µM.

Q: For `O=C(Cc1ccccc1F)NC1CCN(c2cc(-c3ccccc3)[nH]n2)CC1`, which Potency is on record?
A: Its Potency is inconclusive: 44.7 µM [inhibitor, partial curve, poor fit].

Q: For `COc1ccc(-c2noc(CC3CCN(C(=O)CC4CCCCC4)CC3)n2)cc1`, which Potency is on record?
A: Its Potency is active: 44.7 µM.

Q: With `COc1cccc(F)c1C(=O)N1CC(=O)N(c2ccc(Cl)cc2)CC1C` (configuration not stated) as the compound, how does the Potency read?
A: Its Potency is inconclusive: 89.1 µM [inhibitor, single point].

Q: Which Potency does the source give for `CC(C)CCNC(=O)C1c2ccccc2C(=O)N(Cc2ccccc2)C12CCCC2` (configuration not stated) here?
A: Its Potency is inconclusive: 56.2 µM [inhibitor, partial curve, poor fit].

Q: Which Potency does the source give for `COCCOc1ccc(-c2noc([C@@H]3CCCN3Cc3c[nH]c4ccccc34)n2)cn1` here?
A: Its Potency is inconclusive: 112 µM [inhibitor, partial curve, poor fit].

Q: With `Cc1ccc(Nc2ccnc(N3CCC(C(=O)NC4CC4)CC3)n2)cc1` as the compound, how does the Potency read?
A: Its Potency is inconclusive: 25.1 µM [inhibitor, partial curve, poor fit].

— PubChem BioAssay AID1345083 (National Center for Advancing Translational Sciences (NCATS), 2018)
